Data published in a collection of fitness landscapes (doi:10.1126/science.1257360).
Some of the results follow.

B1: PhoQ; a variant is named by its letters at X, in order, P23837 (parent)
chain: MKKLLRLFFPLSLRVRFLLATAAVVLVLSLAYGMVALIGYSVSFDKTTFRLLRGESNLFYTLAKWENNKLHVELPENIDKQSPTMTLIYDENGQLLWAQRDVPWLMKMIQPDWLKSNGFHEIEADVNDTSLLLSGDHSIQQQLQEVREDDDDAEMTHSVAVNVYPATSRMPKLTIVVVDTIPVELKSSYMVWSWFIYVLSANLLLVIPLLWVAAWWSLRPIEALAKEVRELEEHNRELLNPATTRELTSLVRNLNRLLKSERERYDKYRTTLTDLTHSLKTPLXXLQXXLRSLRSEKMSVSDAEPVMLEQISRISQQIGYYLHRASMRGGTLLSRELHPVAPLLDNLTSALNKVYQRKGVNISLDISPEISFVGEQNDFVEVMGNVLDNACKYCLEFVEISARQTDEHLYIVVEDDGPGIPLSKREVIFDRGQRVDTLRPGQGVGLAVAREITEQYEGKIVAGESMLGGARMEVIFGRQHSAPKDE

Variants of: B1
Experiment: enrichment ratio after two sorts for PhoP signalling (ratio (wild type AVST 3.29)); higher = more functional
Details: with PhoP (E. coli)

Variant | enrichment ratio
PFKV | ≤ 0.25
VHVT | ≤ 0.25
IKAH | ≤ 0.25
SDRG | ≤ 0.25
AGDY | ≤ 0.25
LIPA | ≤ 0.25
HWCY | ≤ 0.25
PSLR | ≤ 0.25
TNCA | 8.8
TECV | 22.2
PQPR | ≤ 0.25
AIWI | ≤ 0.25
LQGP | ≤ 0.25
IPNM | ≤ 0.25
VRMI | ≤ 0.25
AETV | 22.9
YQYN | ≤ 0.25
PFCQ | ≤ 0.25
MPPW | ≤ 0.25
HKVF | ≤ 0.25
WQHV | ≤ 0.25

Variant | enrichment ratio
QAFQ | ≤ 0.25
FSEY | ≤ 0.25
FHGV | ≤ 0.25
MNPD | ≤ 0.25
MAVQ | ≤ 0.25
IIGY | ≤ 0.25
GFPV | ≤ 0.25
EGRF | ≤ 0.25
FLTA | ≤ 0.25
NKHG | ≤ 0.25
PSQY | ≤ 0.25
MDWR | ≤ 0.25
WQPV | ≤ 0.25
IQTD | ≤ 0.25
MARA | ≤ 0.25
LLYP | ≤ 0.25
FQWL | ≤ 0.25
HHHH | ≤ 0.25
DLAV | ≤ 0.25
MNQS | ≤ 0.25
GLMW | ≤ 0.25

Variant | enrichment ratio
INFY | ≤ 0.25
NYPE | ≤ 0.25
AGKF | ≤ 0.25
AHPA | ≤ 0.25
MSTE | ≤ 0.25
HTCM | ≤ 0.25
FKEC | ≤ 0.25
WKYR | ≤ 0.25
EYHN | ≤ 0.25
TLCY | ≤ 0.25
EAHD | ≤ 0.25
TDHE | ≤ 0.25
NAGW | ≤ 0.25
LLTY | ≤ 0.25
LRHK | ≤ 0.25
WEHA | ≤ 0.25
LWVD | ≤ 0.25
FDGQ | ≤ 0.25
WDYQ | ≤ 0.25
SNRR | ≤ 0.25
DKIM | ≤ 0.25

Variant | enrichment ratio
HEDI | ≤ 0.25
YEGW | ≤ 0.25
MNAM | 1.4
LWVS | ≤ 0.25
YEMP | ≤ 0.25
NGHD | ≤ 0.25
KYLL | ≤ 0.25
VVRV | ≤ 0.25
QEPL | ≤ 0.25
EAMA | ≤ 0.25
LCHG | ≤ 0.25
KCKA | ≤ 0.25
FLYF | ≤ 0.25
VIWL | ≤ 0.25
WFHR | ≤ 0.25
GIYC | 0.526
WYKA | ≤ 0.25
LYVE | ≤ 0.25
AEKR | ≤ 0.25
TWCD | ≤ 0.25
GSDI | ≤ 0.25
